The results in this text go back to the RNAGym collection of RNA variant scans (doi:10.1093/nar/gkz1192).

Read counts are not given, so values of variants with three or more changes are uncertain.

B1: CPEB3 Ribozyme (parent)
chain: UAACAGGGGGCCACAGCAGAAGCGUUCACGUCGCAGCCCCUGUCAGAUUCUGGUGAAUCUGCGAAUUCUGCUGUAUAUCUC

In the data set the parent is B1. Put plainly: self-cleavage, relative activity (ratio to wild type); higher = more cleavage; in vitro, sequencing. The gist of the method:
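Relative activity was defined as the cleaved/total read fraction for a variant divided by the same fraction for the unmutated ribozyme. CPEB3 self-cleaving ribozyme libraries were made by rounds of error-prone PCR, barcoded, and transcribed in vitro with T7 RNA polymerase for 5 hours at 37°C, and cleavage ran through transcription plus a 15 min DNase I step before EDTA. Illumina sequencing of template-switched reverse transcripts gave the reads, and DNA sequencing mapped the barcodes. Averages come from three batches, using variants with at least 5 reads.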
Turning to UAACGGGGGGCCACAGCAGAAGCGUUCACGUCGCAGCACCUGUCAGAUUCUGGUGAAUCAGCGAAUUCUGCUGUAUAUCUC, the self-cleavage is 0.35.
In the case of UAACGGGGGGCCACAGCAGAAGCGUUCACGUCGUAGCUCCUGUCAGAUUCUGGUGAAUCUGCGAAUUCUGCUUUAUAUCUC it was 0.21; in that of UAACGGGGGGCCACAGCAGAAGCGUUCACGUCGCAGCACCUGCCAGAUUCCGGUGAAUCUGCGAGUUCCGCUGUAGAUCUC, 0.19; in that of UAACGGGGGGCCACAGCAGAAGCGUUUACGUCGCAGCCCUCGUCAGAUUCUGGUGAAUCUGCGAACUCUGCUGUAUAUCUC, 0.11.
To UAACGGGGGGCCACAGCAGAAGCGUUAACGACGCAGCCCCUGUCAGAUUCUGGUGAAUCUGCGAAUUCUGCUGUAUAUCAC belongs 0.09.
As for UAACGGGGGGCCACAGCAGAAGUGUUCACGUCGCAGCCCCUGUCAGAUUCUGGCGAAUCUGCGAAUACUGCUGUAUAUCUC, the self-cleavage turned out to be 0.09.
With UAACGGGGGGCCACAGCAGAAGCGUUCACGUCGGAGCCCCUGUCAGAUUCUGGUGGAUCUGCGAAUUCUACCGUAUAUCUC, the self-cleavage came to 0.2.
In the case of UAACGGGGGGCCACAGCAGAAGCGUUGACGUCACAGCCCCUGUCAGAUGCUGGUGAAUCUGCGAAUUCUGCUGUAUAUCUC it was 0.07; in that of UAACGGGGGGCCACAGCAGAAGCGUUCACGUCGCAGGUCCUGUCAGAUUCUGGUGAGUCUGCGUAUUCUGCUGUAUAUCUC, 0.09; in that of UAACGGGGGGCCACAGCAGAAGCGUUCACGUCGCAGCCCAUGUCAGAUUCUGGUGAAUCUGCGGAUUCCGCUGUAUAUCUC, 0.21.
Consider UAACGGGGGGCCACAGCAGAAGUGUUCACGUCGCGGCCCCUGUCAGAUUCUGGCGAAUCCGCGAUUCCUGCUGUAUAUCUC, for which the self-cleavage worked out at 0.22.
Turning to UAACGGGGGGCCACAGCAGAAGCGUUCACGUCGCAGCCCUUGUCAGAUUCUGGUGAAUCUGCGAAUCCCGCCGUAUAUCUC, the self-cleavage is 0.14.
For UAACGGGGGGCCACAGCAGAAGUGUCCACGUCGCAGCCCCUGUCAGAUUCUGGUGAAUCUGCGAGUUCUGCUGUAUAUCUC, the self-cleavage worked out at 0.45.
In the case of UAACGGGGGGCCACAGCAGAAGCGUUCAUGUCGCAGCCCCUGUCAGAUUCUGGUGAAUCUGCGGAUUCUGCUGUAUAUCCC it was 0.74.
Turning to UAACGGGGGGCCACAGCAGAAGCGUUCAGGUCGCAGCCCCUGUCAGAUUCUGGUGAAUCUGCGAAUUCUGCUGGAUAUCUC, the self-cleavage came to 0.14.
To UAACGGGGGGCCACAGCAGAAGCGUUCACGUCGCAGCACCUGCCAGAUUCCGGUGAAUCUGCGAGUUCCGCUGUAUAUCUC belongs 0.04.
With UAACGGGGGGCCACAGCAGAAGCGUUCACGUCGCAGCCCCUGUAAGAUUCUGGUGAAUCUGCGAAUUCUGCUGUAUAUCCC, the self-cleavage worked out at 0.55.
To UAACGGGGGGCCACAGUUGAAGCGUUCACGUCGCAGCCCCUGUCAGAUUCUGGUGAAUCUGCGAAUUCUGCCGUGUAACUC belongs 0.27.
UAACGGGGGGCCACAGUAGAAGCGUUCACGUCGCAGCCCCUGUCAGAUUCUGGUGAAUCCGCGAAUUCUGCAGUAUAUCUC: the self-cleavage turned out to be 0.17.
Consider UAACGGGGGGCCACAGCAGAAGCGUUCAUGUCGCAGCCCCUGUCAGAUUCUAGUGGGUCUGCGAAUUCUGCUGUAUAUCUC, for which the self-cleavage amounted to 0.09.
For UAACGGGGGGCCACAGCAGAAGUGUUCACGUCGCAGCCCCCGUCAGAUUCUGGUGAAUCUGCGAAUUCUGCUGUAUAUCUC, the self-cleavage came out at 0.24.
As to UAACGGGGGGCCACAGCAGAAGCGUUCACGUCGCAGCCUCUGUCAGAUUCUGGUGAAUCUGCGAAUUCUGCUGCAUAUCUC, the self-cleavage is 0.7.
With UAACGGGGGGCCACAGCAGAAGGGUUCACGUCGCAGCCCCUGUCGGAUUCUGGUGAAUCUGCGAAUUCUGCUGUGUAUCUC, the self-cleavage is 0.18.
For the variant UAACGGGGGGCCACAGCAGAAGCGUUCACGUCGCAGCUCCUGUCAGAUUCUGGUGAAUCUGCGAAUUCUCCUGUAUAUCUC, the self-cleavage amounted to 0.2.
For UAACGGGGGGCCACAGCAGAAGCGUUCACGUCGCAGCCACUGUCAGAUUCUGGUGAAUCUGCGAAUACUGCUGUAUAUCCC, the self-cleavage amounted to 0.22.
Turning to UAACGGGGGGCCACAGCAGAAGUGUUCACGCCGCAGCCCCUGUCAGAUUCUGGUGAAUCUGCGAAUUCUGCUGUAUAUCUC, the self-cleavage is 0.08.
Regarding UAACGGGGGGCCACAGCAGAAGCGUUCAAGUCGUAGCCCCUGUCAGAGUCUGGCGAAUCUGCGAAUACUGCUGUAUAUCUC, the self-cleavage was 0.17.
UAACGGGGGGCCACAGCAGAAGCGUUCACGUCGCAGCCCACGUCAGAUUCUGGUGAAUCUGCGAAUUCUGCUGUAUAUCUC: the self-cleavage was 0.75.
As to UAACGGGGGGCCACAGCAGAAGCGUUCACGUCGCAGCACCUGUCAGAUUCUGGUGAAUCGGCGAAUUCUGCUGUAUAUCCC, the self-cleavage was determined as 0.07.
On to UAACGGGGGGCCACAGCAGAAGCGUUAACGUCGCAGGCCCUAUCAGAUUCUGGUGAAUCUGCGAAUUCUGCUGUAUGUCUC, for which the self-cleavage stood at 0.22.
To UAACGGGGGGCCACAGCAGAAGCGUUCACGUCGUAGCCCCUGUCAGAUUCUGGUGAAUCUGCGAAUUCCGCUGUAUAUCUC belongs 0.28.
Regarding UAACGGGGGGCCACAGUAGAAGCGCUCGCGUCGCAGCCCCUGUCAGAUUCUGGUGAAUCUGCGAAUUCUGCAGUAUAUCUC, the self-cleavage came out at 0.09.
In the case of UAACGGGGGGCCACAGCAGAAGCGUUCACGUCGCAGGCCCUGUCAGAUUCUGGUGUAUCUGCGAAUUCUGCUGUAUAUCUC, the self-cleavage worked out at 0.45.
Regarding UAACGGGGGGCCACAGCAGAAGCGUUCACGUCGUAGCCCCUGUCAGAUUUUGGUGAAUCUGCGAAAUCUGCUGUUUAUCUC, the self-cleavage was found to be 0.09.
